{"source": "the supplement of paper PMC7826260", "note": "Some of the results follow. Viral Rep nickase domains cut single-stranded DNA in vitro for 1 h at 37 °C with 3 µM enzyme; only the middle of the 90-letter strands is printed. Uncut reads are compared with the no-enzyme pool on a log2 scale; uncut sequences lie near 0, cut ones below; no hit call is given. Reads are scaled to the total, so uncut sequences can rise above 0 when many others are cut."}
{"test_system": "T1, Rep nickase domain of banana bunchy top virus", "T1 sequence (residues 1-94 of Rep, tag left off)": "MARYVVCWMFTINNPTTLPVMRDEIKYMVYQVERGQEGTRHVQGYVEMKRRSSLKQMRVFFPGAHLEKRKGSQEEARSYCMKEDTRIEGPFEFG", "experiment": "uncleaved DNA left, log2 of reads against the no-enzyme library (log2 ratio); higher = less cleavage (more negative = more Rep cleavage of the k-mer); sequences stand for … in CTCGTCCG…ACCGGAGA", "procedure": "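A pool of 90-nt single-stranded DNAs with seven random bases just before the constant AC of the nick site (name = the seven bases) was cut by 3 µM recombinant His6-SUMO-tagged Rep nickase domain (300 nM DNA, 50 mM HEPES pH 8.0, 50 mM NaCl, 1 mM MnCl2, 1 h, 37 °C, three replicates). Uncut DNA was amplified and sequenced.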"}
{"sequence": "CACGTGG", "uncleaved DNA left (log2)": 0.0167}
{"sequence": "CCGGTAT", "uncleaved DNA left (log2)": 0.106}
{"sequence": "GAAAATG", "uncleaved DNA left (log2)": -0.0049}
{"sequence": "GATGAGG", "uncleaved DNA left (log2)": 0.0644}
{"sequence": "CGCTATC", "uncleaved DNA left (log2)": 0.0446}
{"sequence": "GATCTGT", "uncleaved DNA left (log2)": 0.0112}
{"sequence": "GCATTCG", "uncleaved DNA left (log2)": -0.0916}
{"sequence": "GTAGCCT", "uncleaved DNA left (log2)": 0.0644}
{"sequence": "TTCTAAC", "uncleaved DNA left (log2)": 0.00539}
{"sequence": "AGCTATA", "uncleaved DNA left (log2)": -0.00459}
{"sequence": "GTCGTTA", "uncleaved DNA left (log2)": -0.0365}
{"sequence": "AGTCCTC", "uncleaved DNA left (log2)": 0.0728}
{"sequence": "CAAATAT", "uncleaved DNA left (log2)": -0.0925}
{"sequence": "GTGGAAT", "uncleaved DNA left (log2)": 0.00815}
{"sequence": "TCTCTCG", "uncleaved DNA left (log2)": -0.0936}
{"sequence": "GCGACTG", "uncleaved DNA left (log2)": 0.0486}
{"sequence": "ATGTTTG", "uncleaved DNA left (log2)": 0.00618}
{"sequence": "CCGTCAC", "uncleaved DNA left (log2)": -0.0265}
{"sequence": "AATACTC", "uncleaved DNA left (log2)": -0.0142}
{"sequence": "CATGCCG", "uncleaved DNA left (log2)": -0.0973}
{"sequence": "ACACGAA", "uncleaved DNA left (log2)": -0.0336}
{"sequence": "GGTTCCC", "uncleaved DNA left (log2)": -0.0217}
{"sequence": "GAAAAGA", "uncleaved DNA left (log2)": 0.0365}
{"sequence": "AGAGGGG", "uncleaved DNA left (log2)": 0.151}
{"sequence": "ATACTGC", "uncleaved DNA left (log2)": 0.0387}
{"sequence": "ACGTACT", "uncleaved DNA left (log2)": -0.704}
{"sequence": "AAACACT", "uncleaved DNA left (log2)": -0.0748}
{"sequence": "GTTCGCG", "uncleaved DNA left (log2)": -0.0611}
{"sequence": "CTATTCC", "uncleaved DNA left (log2)": 0.104}
{"sequence": "TGGAGAT", "uncleaved DNA left (log2)": 0.122}
{"sequence": "TCGATTA", "uncleaved DNA left (log2)": -0.119}
{"sequence": "TAAGCGC", "uncleaved DNA left (log2)": -0.00675}
{"sequence": "TGGGAGA", "uncleaved DNA left (log2)": 0.0625}
{"sequence": "GATACTG", "uncleaved DNA left (log2)": 0.0742}
{"sequence": "TACATTT", "uncleaved DNA left (log2)": -0.977}
{"sequence": "TAAACTA", "uncleaved DNA left (log2)": 0.0397}
{"sequence": "AGCAACT", "uncleaved DNA left (log2)": 0.0892}
{"sequence": "CATATAC", "uncleaved DNA left (log2)": 0.0057}
{"sequence": "AGCTGAG", "uncleaved DNA left (log2)": 0.0885}
{"sequence": "TTGAAAG", "uncleaved DNA left (log2)": -0.0153}
